Test results reported in paper PMC4336329 (PLoS ONE, 2015).
Hit rate of the full screen: of about 310,000 compounds, about 2,200 (0.71%) showed an effect of 50% or more. Effects have a minus sign here. The list shows a part of the results.

Target: human ether-à-go-go-related gene (hERG) potassium channel (human, UniProt Q12809)
Assay: primary screen, population patch clamp on CHO cells stably expressing hERG

human ether-à-go-go-related gene (hERG) potassium channel, sequence (Q12809 whole entry, looked up): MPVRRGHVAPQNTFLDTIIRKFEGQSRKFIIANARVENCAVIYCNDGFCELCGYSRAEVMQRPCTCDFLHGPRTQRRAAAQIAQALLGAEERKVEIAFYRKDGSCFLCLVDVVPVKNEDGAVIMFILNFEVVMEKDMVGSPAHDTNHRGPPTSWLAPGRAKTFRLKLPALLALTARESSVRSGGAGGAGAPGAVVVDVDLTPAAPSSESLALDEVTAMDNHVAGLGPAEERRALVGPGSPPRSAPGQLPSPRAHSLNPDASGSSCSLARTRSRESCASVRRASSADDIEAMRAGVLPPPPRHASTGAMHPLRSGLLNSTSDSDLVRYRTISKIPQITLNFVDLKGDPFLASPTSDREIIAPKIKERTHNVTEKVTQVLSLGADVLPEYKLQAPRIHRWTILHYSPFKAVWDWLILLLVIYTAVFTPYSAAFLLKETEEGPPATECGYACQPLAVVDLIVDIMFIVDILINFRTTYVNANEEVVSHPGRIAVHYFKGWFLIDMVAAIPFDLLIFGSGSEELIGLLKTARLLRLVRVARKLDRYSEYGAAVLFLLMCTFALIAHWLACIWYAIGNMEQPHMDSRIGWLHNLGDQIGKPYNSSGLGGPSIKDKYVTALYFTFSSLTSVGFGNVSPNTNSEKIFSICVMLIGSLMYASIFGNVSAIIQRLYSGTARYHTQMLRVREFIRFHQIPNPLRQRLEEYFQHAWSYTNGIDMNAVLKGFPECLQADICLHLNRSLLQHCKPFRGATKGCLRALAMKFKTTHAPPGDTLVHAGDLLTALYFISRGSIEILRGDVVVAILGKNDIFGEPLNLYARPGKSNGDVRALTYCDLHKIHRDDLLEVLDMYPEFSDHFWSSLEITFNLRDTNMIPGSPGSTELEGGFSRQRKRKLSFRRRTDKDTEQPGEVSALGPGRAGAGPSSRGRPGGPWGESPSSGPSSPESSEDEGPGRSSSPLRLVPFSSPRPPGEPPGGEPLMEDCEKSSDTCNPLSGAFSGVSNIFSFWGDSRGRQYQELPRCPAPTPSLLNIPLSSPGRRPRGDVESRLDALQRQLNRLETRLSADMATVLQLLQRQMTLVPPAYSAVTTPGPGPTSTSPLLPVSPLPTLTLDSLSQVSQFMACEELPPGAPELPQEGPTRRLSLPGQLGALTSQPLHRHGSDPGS

| SMILES | hERG current change (%, negative = inhibition) at 1uM |
| --- | --- |
| O=C(Cn1ncc2c([nH]c3ccccc32)c1=O)NCCCN1CCN(c2ccccc2)CC1 | -3% |
| Cc1cc(C)cc(NC(=O)c2ccc(CSc3nnc(C)s3)cc2)c1 | 8.08% |
| O=c1c(CN2CCN(c3ccccn3)CC2)coc2ccccc12 | -6.81% |
| CCn1ncc(CN2CCCC(C(=O)Nc3cccc(-c4cc5ccccc5[nH]4)c3)C2)c1C (centres unmarked) | 2.83% |
| O=C(Cc1c[nH]c2ccccc12)Nc1ccc(N2CCOCC2)cc1 | 8.78% |
| O=C(O)/C=C/C(=O)N1CCN(c2cccc(Cl)c2)CC1 | 7.47% |
| CC1CN(C(=O)C2CCCCC2)C(C)CN1C(=O)C1CCCCC1 (centres unmarked) | 17.1% |
| O=c1oc2ccccc2cc1-c1nc(-c2ccccc2)no1 | -6.57% |
| Cc1ccc(OCC(=O)NNC(=S)NC(=O)C(C)(C)C)c(Br)c1 | 11.6% |
| COC(=O)c1c(C)[nH]c(C)c1-c1ccc(C)cc1 | 12.1% |
| COc1ccc2c(c1)c(=O)oc1c(C)c(OCc3ccc(C(=O)O)cc3)ccc12 | 11.2% |
| O=C(CN(C(=O)CNC(=O)c1cccs1)c1cccc(F)c1)NC1CCCCC1 | 6.83% |
| O=C(OCCCOc1ccc(F)cc1)c1ccc(O)cc1O | 13.4% |
| CN(C)CCNc1oc(COc2cccc(Cl)c2)nc1C#N | -4.66% |
| O=C(NCCc1ccc(Cl)cc1)c1ccc(OCC2CCCO2)cc1 (centres unmarked) | 15.4% |
| COc1ccc(CCC(C)NCCc2ccc(Cl)cc2Cl)cc1 (centres unmarked) | -50.1% |
| Cc1ccc(SCc2ccc(C(=O)Nc3cccc([N+](=O)[O-])c3C)cc2)cc1 | 12% |
| COc1ccc(CCNCC2C(Oc3ccc(Cl)cc3)C(=O)N2c2ccccc2C)cc1OC.Cl (centres unmarked) | -6.44% |
| COc1ccc(CN(C)C(C)C(=O)N(C)CC(=O)Nc2ccc(C)cc2)cc1F (centres unmarked) | -16.3% |
| O=C(NNc1ncccc1Cl)c1c(Cl)cccc1Cl | 10.9% |
| COc1ccc(C(=O)O/N=C(/c2ccccc2)c2ccncc2)cc1OC | 12.8% |
| CC(C)c1ccc(OCC(=O)N(Cc2ccccc2)c2ccccn2)cc1 | 12.5% |

| SMILES | hERG current change (%, negative = inhibition) at 1uM |
| --- | --- |
| CCOc1ccc(C(CC(=O)O)NC(=O)COc2ccc3ccccc3c2)cc1OC (centres unmarked) | 16.4% |
| Cc1cc(C)n2nc(-c3ccco3)nc2n1 | 6.62% |
| COc1ccc(CCNS(=O)(=O)c2ccc(-n3cnnn3)cc2)cc1OC | -6.7% |
| C=CCN(c1ccc(C(=O)Nc2ccc3c(c2)OCO3)cc1)S(C)(=O)=O | 6.65% |
| CSCCC(NS(=O)(=O)c1ccc(C)cc1)C(=O)N1CCCCCCC1 (centres unmarked) | 8.8% |
| CC(=O)N1CCc2cc(S(=O)(=O)NCCC(=O)Nc3cccc(C)c3C)ccc21 | 2.01% |
| CN(c1cccc(NC(=O)CN2C(=O)c3ccccc3S2(=O)=O)c1)S(C)(=O)=O | -11.8% |
| Cc1ccc(-c2[nH]ncc2/C=N/n2c(COc3ccccc3C)nc3ccccc3c2=O)cc1 | 5.21% |
| O=C(CC1Nc2ccccc2NC1=O)c1ccccc1 (centres unmarked) | 6.1% |
| O=S(=O)(c1ccc(Cl)cc1)N1CCN(C(=S)Nc2ccccc2F)CC1 | 5.05% |
| O=C(COC(=O)c1cc(-c2ccco2)nc2ccccc12)NCc1ccccc1 | 5.47% |
| O=C(CSc1n[nH]c(-c2ccccn2)n1)Nc1ccc(F)cc1 | 12.8% |
| O=C(Nc1c2c(nn1-c1cccc(Cl)c1)CS(=O)(=O)C2)c1ccc2c(c1)OCO2 | 17.7% |
| N#Cc1nc(-c2ccc(OCc3ccccc3)cc2)oc1NCCN1CCOCC1 | 18.7% |
| NS(=O)(=O)c1ccc(NC(=O)CSC2=NC(=O)C(c3ccccc3)C(=O)N2)cc1 (centres unmarked) | 3.9% |
| COc1ccc(NC(=O)C#Cc2ccccc2)cc1OC | 8.43% |
| COc1ccc(C(=O)Nc2cc(C(F)(F)F)ccc2-n2cnc3ccccc32)cc1 | 10.7% |
| COc1ccc(NC(=O)c2ccccc2NS(=O)(=O)c2ccc(CNC(C)=O)cc2)c(OC)c1 | 13.3% |
| CC(=O)c1nnn(-c2ccc([N+](=O)[O-])cc2C)c1C | 5.69% |
| CC(C)(C)C(=O)NC(=O)Nc1ccccc1C(F)(F)F | 22.2% |
| Cc1ccccc1/C=N/n1c(-c2cc(-c3ccccc3)n[nH]2)n[nH]c1=S | 15.6% |
| O=C(O)c1cccc(S(=O)(=O)Nc2ccc(O)c(Sc3nc4ccccc4s3)c2)c1 | 26.7% |
